# Laboratory results as given in PubChem BioAssay AID686978 (National Center for Advancing Translational Sciences (NCATS), 2013).
# Out of some 420,000 compounds screened, about 64,000 (15%) were called active. Inconclusive means that the source gave no clear call. Such entries were picked first, then a sample of the others. Calls follow the shape of the dose curve; as a rule, active = well fitted inhibition curve with a large enough effect; inconclusive = small, poorly fitted or top-dose-only effect; inactive = flat fitted curve, though single readings scatter. No potency is given beside an inconclusive call; the fits are too rough.
# Assay: qHTS for Inhibitors of human tyrosyl-DNA phosphodiesterase 1 (TDP1): qHTS in cells in absence of CPT; also: nearly all actives have a fitted effect of over 55% in size
# Conditions: DT40 Tdp1-/- hTDP1 cells, no CPT, ATP luminescence, 48 h; series mostly up to 46.2 µM
# Outline: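 A cellular qHTS used chicken DT40 cells lacking endogenous Tdp1 but carrying stably transfected human TDP1. Compounds were applied without camptothecin, and cell growth kinetics were judged by ATP-dependent luminescence after ≥48 hr.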
# Potency is read from the fitted curve at half-maximal effect; tags tell the direction and shape of the fitted curve.
row,Structure (SMILES),Potency
1,CCCCN(CC)CCNC(=O)c1cc2c(-c3ccccc3F)nn(C)c2s1,"inconclusive [inhibitor, single point]"
2,COc1ccc(/C=N/NC(=O)COc2ccc3ccccc3c2)c(C(=O)O)c1OC,"inconclusive [inhibitor, single point]"
3,CCOc1ccccc1NC(=O)C(NS(=O)(=O)c1ccc2c(c1)CCC(=O)N2)c1ccccc1 (centres undefined),"inconclusive [inhibitor, single point]"
4,Cn1ccnc1SCC(=O)Nc1cccc(S(=O)(=O)N2CCCCCC2)c1,inactive
5,N#CC(C#N)=Cc1cnc(N2CCN(c3ccccc3)CC2)s1,inactive
6,O=C(Nc1cccnc1)C(Cc1ccccc1)n1cccc1 (centres undefined),inactive
7,CN(C)c1ccc(-c2cc([C@H]3[C@@H]4C=CCC[C@@]4(C)C(=O)N3Cc3ccccc3)ccc2F)cc1,active: 23.1 µM
8,O=C(c1ccc(F)cc1)N1CCC(c2nc3ccccc3o2)CC1,"inconclusive [inhibitor, single point]"
9,Cc1nn(-c2ccccc2)c(Cl)c1/C=C1\SC(=S)N(C)C1=O,"inconclusive [inhibitor, single point]"
10,Cc1ccccc1OCC(=O)NCC(=O)OCC(=O)c1ccc(-c2ccccc2)cc1,"inconclusive [inhibitor, single point]"
11,COc1ccc(C2CC(c3cccs3)=NN2C(=O)CSC2=NN3CCCC(=O)N=C3S2)cc1 (centres undefined),"inconclusive [inhibitor, single point]"
12,c1ccc(COc2ncnc3c2ncn3CCCN2CCN(Cc3cccc4ccccc34)CC2)cc1,active: 9.2 µM
13,O=C(CCC(=O)N1CC2CCCN2c2ccccc21)NCc1ccccc1 (centres undefined),"inconclusive [inhibitor, single point]"
14,CC(=O)Nc1sc(N/N=C\c2cccc(Cl)c2)nc1-c1cccs1,"inconclusive [inhibitor, partial curve]"
15,CC12CCC(=O)N1C(C(=O)NCc1ccc(Cl)cc1Cl)CS2 (centres undefined),inactive
16,CC(C)(C)c1ccc(Oc2nc3ccccn3c(=O)c2/C=C(\C#N)c2nc3ccccc3[nH]2)cc1,inactive
17,O=Cc1s/c(=N\S(=O)(=O)c2ccccc2)n(CCCCl)c1Cl,active: 0.731 µM
18,COc1ccc(CCNc2nc3c(c(=O)n(C)c(=O)n3C)n2C)cc1OC,"inconclusive [inhibitor, single point]"
19,O=C(CSc1nnc2ccc(-c3ccccn3)nn12)Nc1ccc(F)cc1,"inconclusive [inhibitor, single point]"
